# Assay results: the supplement of paper PMC11417369
# ± gives the standard deviation of the averaged measurements. This is one part of the list.
# System: PfAP2-I AP2 domain 3 (GST-tagged)
# Assay: gcPBM binding intensity (ln(normalized median fluorescence intensity)); higher = stronger DNA binding
# Outline: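 The binding buffer was 1× PBS containing 1% milk, 0.2 mg/ml BSA, 0.5% salmon testes DNA and 0.03% Triton X-100. In it, GST-tagged P. falciparum DNA-binding domains expressed in E. coli were applied for 1 h to an Agilent 4 × 180k array of primer-extended double-stranded 36-bp intergenic genomic probes plus negative controls. Binding intensity, read with Alexa488 anti-GST antibody and a 488 nm scan, is the highest Masliner-normalised natural-log median intensity across replicate spots of either probe orientation.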
row,Sequence,gcPBM binding intensity (ln)
1,TTATATATATATATATAATATATATATATTTAAATA [XGTACX_negctrl_site453],7.88 ± 0.52
2,AAGAATATAATCTTCACACATATATATATATATATA [CACACA_site5927],9.36 ± 0.35
3,AAGGACAACAAACAAACACACACAAAAAAAAAATAA [CACACA_site9263],7.96 ± 0.25
4,ACCTAATATTATTAAACATGCACATTTGCATAAATA [TGCATGCA_site870],8.75 ± 0.64
5,CAAAATGAAAGGAAAAGTACATTTAAATGAATAAAT [XGTACX_site8241],7.8 ± 0.77
6,AAATAATTCAAAAAAACACACAAATTACAAAATAAA [CACACA_site269],7.7 ± 0.53
7,GTATAATATTCATATTCACACATTAAAATATATTTA [CACACA_site4879],7.74 ± 0.45
8,TAAAAATATATTATATGTACGTATAACAATGTATGA [XGTACX_site8606],7.96 ± 0.41
9,CCCTTTTTTTTTTAATGTACATATAATTATATATTT [XGTACX_site8568],8.27 ± 0.51
10,GGAAACCTTTTTTTTACACACAATATATTAAGACTT [CACACA_site4899],7.74 ± 0.67
11,AATTGTACGTAGGGGTATAAAAGCTTAAAAATGGGG [CACACA_negctrl_site1392],9.18 ± 0.23
12,AAAGCAAAAGGAAAATAACCAACCCTAATTAACACA [CACACA_negctrl_site530],7.89 ± 0.46
13,TAGTATTAAATATATACACACATATATACATATAGA [CACACA_site2154],7.59 ± 0.35
14,TTAATTTTTTTTTCTTGTACACACTATTTTATAATT [XGTACX_site8783],8.19 ± 0.49
15,GTTGCACAATGTTACACACACAATATATATCGTTAA [CACACA_site1275],8.28 ± 0.4
16,GTGTACTTTTAAATAGTGCATTTTACAATAATAAAA [GTGCAC_site9653],9.88 ± 0.32
17,GTAATAAAATGACATACATGCATTACAATTATGTAA [TGCATGCA_site220],7.78 ± 0.47
18,TATTATAATACTTATTGTACTTTTAGGTTAATTTAT [XGTACX_site995],7.75 ± 0.48
19,AAGGCAAACAAACACACACACATATATACCTATATA [CACACA_site5203],7.87 ± 0.57
20,AGAAATGAAATCCAAAAACGAGGAACCAATAACGCA [CACACA_negctrl_site1758],8 ± 0.81
21,TCTTATCCATATATTACACACTATATATAGAAATTA [CACACA_site291],7.85 ± 0.59
22,ATATTATATTATTAATGTACATATATATAATTTTAA [XGTACX_site4974],7.59 ± 0.29
23,TAGGTCCTCATTTTATGTACATAAAGAAATATGATT [XGTACX_site4138],7.86 ± 0.36

row,Sequence,gcPBM binding intensity (ln)
1,TACATACATACATACACACACACATATATATATATA [CACACA_site42],9.51 ± 0.2
2,TCCTTCGAAACTAAAATTCATTTAAAATATTGATAT [CACACA_negctrl_site369],7.33 ± 0.61
3,AAAGAAAAAAAAATTACACACATATATTATAGATAT [CACACA_site7495],7.44 ± 0.79
4,ATATATGCTAATATATGTACTGATTATATCTCTTCA [XGTACX_site7156],7.47 ± 0.47
5,ATATAAACATTTAGTAATCCATATAGGTACTACTGA [CACACA_negctrl_site1249],7.62 ± 0.31
6,AAAAAAAATATATAAACACACATATTTATATACGCA [CACACA_site1631],7.41 ± 0.47
7,TATTTATAGATATATACACACATATACATATTGTTT [CACACA_site7611],7.64 ± 0.28
8,AAATTAGACTATAATACACACATAAAAAAAAAAAAA [CACACA_site6155],7.91 ± 0.45
9,AGATATCTTGTGAAATAAAAAAAATAATTGCTTATA [CACACA_negctrl_site798],7.32 ± 0.61
10,CATCTTAGTTTGAGTTGTACAATATTTATAAAAATA [XGTACX_site693],7.99 ± 0.35
11,ACAAGTTTAACATTTCGTACTTATTGTGTTTTTTTT [XGTACX_site5487],7.72 ± 0.89
12,GCAGTATTTCGGAACACACAAACATAAATATGTATT [CACACA_site2316],7.74 ± 0.57
13,ATATATATATATGTATGTACATATTTTTTTTAACAC [XGTACX_site8475],9.29 ± 0.14
14,ATATATATTTAAAGATGTACATAATGAAATGGTTAT [XGTACX_site4706],8.23 ± 0.56
15,AAATTTATTTATTATAGTACACTTAATACTACCCAA [XGTACX_site41],8.02 ± 0.23
16,AGCACAGACGGACACACACACACACCCACAGACACA [CACACA_site4358],8.23 ± 0.38
17,GCACAATTTACACTTAAACACACAAAAAAAAATTAT [CACACA_site8642],8.09 ± 0.31
18,TATACACGCGGACACACACACACACGCAAAAAAAAA [CACACA_site6377],8.53 ± 0.31
19,TTTACACCGTAATATGCATGTGTGTATATATTTTTG [TGCATGCA_site186],7.74 ± 0.52
20,ATAAGCCATTTTTGTGGTACATAAAATAGATATATA [XGTACX_site5175],7.63 ± 0.3
21,TAAAAACCAAAGAAAAGTACAAATTTAAATGAGAAA [XGTACX_site7450],7.83 ± 0.88
22,TAAACACCCATATAAACACACATACATACATACATA [CACACA_site5383],8.1 ± 0.9
